Where a name gives a salt, the structure may show the parent alone.
Tested on: SARS-CoV-2
Type: cell-based

`CN1CCCC(n2nc(Cc3ccc(Cl)cc3)c3ccccc3c2=O)CC1` (stereo not shown) [Azelastine-HCl] was tested, and the “protection of SARS-CoV-2 infected cells from dying” value was “significantly protected from dying”.

From US20230201216A1, “AZELASTINE AS ANTIVIRAL TREATMENT” (priority 2020, published 2023)
